According to publication PMC4336329 (PLoS ONE, 2015):
Out of some 310,000 compounds screened, about 14,000 (4.5%) showed an effect of 50% or more. The effect is printed as a negative number. Some of the results follow. Where a SMILES comes first, the peptide text is derived from it. [ ]: non-standard residue; d: D form. The star is where a group is joined. Phe(4-Me) = Cc1ccc(C[CH](N)C(=O)O)cc1; Bz = O=C(c1ccccc1)*

What follows are molecules tested against human ether-à-go-go-related gene (hERG) potassium channel (human, UniProt Q12809) (assay: primary screen, population patch clamp on CHO cells stably expressing hERG).
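Also: peak tail current of the secondary pulse compared with the same well before compound.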

human ether-à-go-go-related gene (hERG) potassium channel, sequence (Q12809 whole entry, looked up): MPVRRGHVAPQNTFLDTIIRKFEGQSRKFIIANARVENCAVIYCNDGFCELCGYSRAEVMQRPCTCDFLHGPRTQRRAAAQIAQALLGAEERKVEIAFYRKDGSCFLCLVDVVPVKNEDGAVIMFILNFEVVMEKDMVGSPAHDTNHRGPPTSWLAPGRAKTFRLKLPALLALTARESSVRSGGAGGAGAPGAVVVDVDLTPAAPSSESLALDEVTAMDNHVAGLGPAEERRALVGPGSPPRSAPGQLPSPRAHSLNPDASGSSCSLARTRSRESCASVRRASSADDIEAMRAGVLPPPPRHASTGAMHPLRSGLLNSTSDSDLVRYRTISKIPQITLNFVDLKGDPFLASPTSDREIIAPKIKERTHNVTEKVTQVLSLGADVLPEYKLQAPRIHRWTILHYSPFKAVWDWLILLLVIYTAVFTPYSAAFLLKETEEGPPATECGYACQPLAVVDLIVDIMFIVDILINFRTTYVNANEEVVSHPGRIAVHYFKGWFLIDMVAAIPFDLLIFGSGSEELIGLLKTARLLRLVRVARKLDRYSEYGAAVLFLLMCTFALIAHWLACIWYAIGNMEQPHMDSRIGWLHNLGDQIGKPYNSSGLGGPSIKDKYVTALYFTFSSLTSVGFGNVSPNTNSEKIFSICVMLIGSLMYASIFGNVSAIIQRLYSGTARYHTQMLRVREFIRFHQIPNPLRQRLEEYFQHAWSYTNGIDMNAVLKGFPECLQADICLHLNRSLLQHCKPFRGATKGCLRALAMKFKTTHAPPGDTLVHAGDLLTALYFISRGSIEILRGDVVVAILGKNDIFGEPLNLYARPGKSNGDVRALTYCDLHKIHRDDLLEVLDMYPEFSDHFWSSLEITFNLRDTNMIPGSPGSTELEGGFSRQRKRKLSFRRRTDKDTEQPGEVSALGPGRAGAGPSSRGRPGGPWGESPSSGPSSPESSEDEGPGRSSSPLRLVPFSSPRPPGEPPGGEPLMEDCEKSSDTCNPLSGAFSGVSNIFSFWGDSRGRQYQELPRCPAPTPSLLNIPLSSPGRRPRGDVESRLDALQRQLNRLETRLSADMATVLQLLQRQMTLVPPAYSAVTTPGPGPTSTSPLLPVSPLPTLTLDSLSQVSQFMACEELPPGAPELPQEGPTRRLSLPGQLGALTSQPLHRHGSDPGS

Row | SMILES | hERG current change (%, negative = inhibition) at 10uM
1 | O=C(Nc1nnc(-c2cccnc2)o1)c1ccccc1Cl | 20.7%
2 | CC(=O)Oc1cc(C(C)C)c(OCCN(C)C)cc1C.Cl | -3.74%
3 | CC1=C(C(=O)Nc2ccccn2)C(c2cn(C)nc2C)C2=C(CCCC2=O)N1 (stereo not shown) | 5.68%
4 | CC1(C)OC(c2ccccc2)=C/C(=C/C=N/NC(=O)c2ccncc2)O1 | -4.96%
5 | Nc1nnc(CC(=O)N/N=C/c2ccccc2OCc2ccc(F)cc2)s1 | 6.22%
6 | Nc1ncc(Br)cc1S(=O)(=O)NCCC(=O)NCCc1ccc(Cl)cc1 | 6.84%
7 | O=C(c1ccccc1)N1CCN(CCc2ccccn2)CC1 | 8.41%
8 | O=CN(/C=C1\Sc2ccccc2C1=O)Cc1ccccc1 | 3.1%
9 | Cc1cc(C)c2nc(N3CCC(C(=O)NCc4cccnc4)CC3)sc2c1 | -79%
10 | CCNC(=S)Nc1cc(OCC)c(NC(=O)c2ccco2)cc1OCC | -1.82%
11 | CC(C)(C)c1nnc(NC(=O)c2cccnc2)s1 | 17.4%
12 | CN1CCN(/N=C2/C(=O)Nc3ccc([N+](=O)[O-])cc32)CC1 | -17.9%
13 | CCOc1ccccc1N1CC(C(=O)NNC(=O)c2cc(OC)c(OC)c(OC)c2)CC1=O (stereo not shown) | 9%
14 | Cc1ccccc1NS(=O)(=O)c1cc(C(=O)NCCSC2CCCCC2)ccc1C | 15.1%
15 | N#C/C(=C\Nc1ccc2cn[nH]c2c1)c1nc(-c2ccc(Cl)cc2)cs1 | 13.4%
16 | COC(=O)CCSCC(=O)Nc1cc(C)on1 | -14.4%
17 | COc1ccc(S(=O)(=O)N2CCN(CCc3ccccc3)CC2)c(OC)c1 | -25.6%
18 | Cc1nc(-c2ccccc2O)n(S(=O)(=O)N(C)C)n1 | -4.34%
19 | N=C1c2ccccc2CN1c1ncccn1 | -10.6%
20 | Cc1ccc(S(=O)(=O)/N=C2/NC(=O)/C(=C\c3ccco3)S2)cc1 | 2.52%
21 | CCOc1ccccc1NC(=O)C1CCCN1C(=O)c1cccs1 (stereo not shown) | 7.83%
22 | Nn1c(SCC(=O)NC2CCCc3ccccc32)nnc1-c1cccs1 (stereo not shown) | -5.07%

Row | SMILES | hERG current change (%, negative = inhibition) at 10uM
23 | Cc1ccsc1C1C2=C(CCCC2=O)Nc2ncnn21 (stereo not shown) | -0.73%
24 | CCOc1ccc(C(=O)Nc2ncn[nH]2)cc1 | 19.1%
25 | COc1cccc(CC2(CO)CCN(Cc3cccn3-c3cccnc3)CC2)c1 | -47.7%
26 | Cc1c(C(=O)Nc2ccccc2F)sc2nc3n(c(=O)c12)CCC3 | 17%
27 | CCN(CC)CCN(Cc1cc2cc(C)ccc2[nH]c1=O)C(=S)NCc1ccco1 | -43.4%
28 | N#CCCn1c(C2CCCCC2)nc2ccccc21 | -1.35%
29 | CC(C)c1ccc(NC(=S)N2CCN(S(=O)(=O)c3ccccc3)CC2)cc1 | 13.6%
30 | CCc1ccc2c(CC(=O)Nc3cccc(S(=O)(=O)N4CCOCC4)c3)coc2c1 | -0.796%
31 | Cc1ccc(OC(=O)CCC(=O)N2CCc3ccccc32)cc1 | 1.95%
32 | Cc1c(NS(=O)(=O)c2cc(C(=O)O)ccc2Cl)c(=O)n(-c2ccccc2)n1C | 23.2%
33 | CCOC(=O)C1=C(c2ccccc2)Nc2nc(C)nn2C1c1cccc(OC)c1OC (stereo not shown) | 5.72%
34 | Cc1ccc(CC(NC(=O)c2ccccc2)C(=O)NC(Cc2ccccc2)C(=O)O)cc1 (stereo not shown) (Bz-[Phe(4-Me)]-Phe-OH; configuration not given here) | 8.66%
35 | CCOCCCNC(=S)N1CCCC(c2nc3ccc(C)cc3[nH]2)C1 (stereo not shown) | -4.41%
36 | COc1ccc(Cn2c(=O)c3c(nc(NCCO)n3C)n(C)c2=O)cc1 | 12.3%
37 | COc1cc([C@H]2[C@@H]3CCCC[C@]3(O)CCN2CC(=O)Nc2ccc(C)cc2)ccc1O | -6.06%
38 | CCOc1cccc(OCCOCCN2CCCC2)c1 | -10.1%
39 | O=C(CCNS(=O)(=O)c1ccccc1)NCCCSc1ccccc1 | -3.99%
40 | Cc1cc(C)nc(SCCC(=O)Nc2cccc3ccccc23)n1 | 4.1%
41 | COc1ccccc1NC(=O)Nc1ccc(CC#N)cc1 | 3.25%
42 | O=C(N/N=C/c1cc(Br)c(O)c(Br)c1)c1cc2c(ccc3ccccc32)o1 | 2.81%
43 | CC(=O)c1ccc(S(=O)(=O)N2CCC(NC(=O)c3ccccc3)CC2)cc1 | 15.2%
44 | N#Cc1c(-c2ccc(Cl)cc2)c(C#N)c(=O)n(N)c1N | 0.12%

Row | SMILES | hERG current change (%, negative = inhibition) at 10uM
45 | Cc1ccc(NS(=O)(=O)c2c(C)noc2C)cc1 | -55.1%
46 | COc1ccccc1NC(=O)CSc1nc2sc3c(c2c(=O)n1-c1ccccc1)CCN(C)C3 | -26%
47 | O=C(CSc1nc2ccccc2n1CC(=O)N1CCCCC1)N1CCCCC1 | -26.6%
48 | COc1ccccc1/C=C1\SC(=S)N(CCC(=O)Nc2nnc(C)s2)C1=O | 16.3%
49 | O=C1CC(c2cccc(Cl)c2)CC(O)=C1C=NCCCO (stereo not shown) | -0.247%
50 | O=C(N=C1SC2CS(=O)(=O)CC2N1c1cccc(Cl)c1)C1CCCO1 (stereo not shown) | 7.77%
51 | CCOC(=O)c1cc2sc(C)cc2n1CC(=O)N1CCc2ccccc21 | 1.44%
52 | CCCN(CCC)CCCNC(=O)Cn1cnc2sc(C)c(S(=O)(=O)N3CCOCC3)c2c1=O | 23.6%
53 | COc1ccc(N2C(=NC(=O)C3CCCCC3)SC3CS(=O)(=O)CC32)c(OC)c1 (stereo not shown) | -7.61%
54 | Cn1c(=O)oc2cc(S(=O)(=O)NCCN3CCc4ccccc4C3)ccc21 | -6.67%
55 | NC(=O)NS(=O)(=O)Oc1ccccc1 | 14.1%
56 | Cl.NS(=O)(=O)c1ccc(CCNCc2cccs2)cc1 | 4.04%
57 | O=C(CN1CCC(Cc2ccccc2)CC1)NCCc1ccc(F)cc1 | -32.6%
58 | O=C(C1CCCN(S(=O)(=O)c2ccc(F)cc2)C1)N1CCCCC1 (stereo not shown) | 6.09%
59 | Cc1nc(C)n(C(C)CNC(=O)c2ccco2)n1 (stereo not shown) | 9.18%
60 | CCC(C)(C)NC(=O)CSc1nc(Cc2ccccc2)nc2ccccc12 | 11.5%
61 | CN1CCN(S(=O)(=O)c2cccc(C(=O)Nc3ccccc3N3CCCC3)c2)CC1 | -17.2%
62 | COc1cccc(C(=O)C2CN(c3ccccc3)CC2c2ccc(Cl)cc2)c1 (stereo not shown) | 5.04%
63 | O=C(CN1CCN(S(=O)(=O)c2ccc(F)c(Cl)c2)CC1)N1CCNC1=O | -1.79%
64 | O=C(NCCC1=CCCCC1)C(=O)NCc1ccccc1Cl | 3.98%
65 | COc1ccc(-c2cc(C(=O)OCC(=O)Nc3cc(C)on3)c3ccccc3n2)cc1OC | 6.5%
66 | O=C(Nc1scc(-c2ccccc2)c1C(=O)O)c1ccco1 | -0.991%

Row | SMILES | hERG current change (%, negative = inhibition) at 10uM
67 | Cc1ccc(/C=C(/C#N)C(=O)NC(=O)Oc2ccccc2)cc1 | 12.4%
68 | CN(C(=O)CN1C(=O)S/C(=C\c2ccccc2)C1=O)C1CCS(=O)(=O)C1 (stereo not shown) | 2.1%
69 | COc1ccccc1NC(=O)C(C)OC(=O)CN1C(=O)C2CC=CCC2C1=O (stereo not shown) | -39.2%
70 | CSC(=Nc1ccccc1)c1c(O)n(C)c(=O)n(C)c1=O | 1.79%
71 | Cc1ccc(OCC(=O)Nc2ccc(N3CCN(C(=O)c4ccco4)CC3)cc2)cc1C | -22%
72 | Cc1ccccc1-n1ccnc1SCC(=O)NCC1CCCO1 (stereo not shown) | 15.3%
73 | Cc1ccc(-c2cc3ccccc3nc2N)cc1 | 6.94%
74 | COc1ccc(C2(c3ccc(OC(C)=O)cc3OC(C)=O)CC(c3ccccc3)NC(=S)N2)cc1 (stereo not shown) | -50.2%
75 | O=C(OCC(=O)N1CCN(C(=O)c2ccco2)CC1)c1cccc(O)c1 | 13.3%
76 | COc1ccc(C2=NS(=O)(=O)N(C)C(C(=O)Nc3ccc4c(c3)OCO4)=C2)cc1 | -4.37%
77 | CC(C)C(=O)N(c1ccc2oc(=O)sc2c1)S(=O)(=O)c1cccs1 | 12.8%
78 | CCCn1c(SCC#N)nc2c(c1=O)C1(CCCC1)Cc1ccccc1-2 | 8.66%
79 | Cc1occc1C(=O)Nc1c(F)c(F)c(F)c(F)c1F | -7.14%
80 | CCCc1[nH]c2ccc(C(=O)OC)cc2c1CCC | 13.7%
81 | COc1ccc(C2CC(=O)n3c(nc4ccccc43)S2)cc1OC (stereo not shown) | 13.7%
82 | N#Cc1cccc(NC(=O)Cn2cnc(S(=O)(=O)N3CCc4ccccc43)c2)c1 | -3.85%
83 | COc1ccc(C(NCC(=O)NC(C)c2ccc(Cl)cc2)c2ccccc2)cc1 (stereo not shown) | 12%
84 | CCOc1cc(/C=C2/C(=N)N3C(=NC2=O)SN=C3S(=O)(=O)CC)ccc1OC(=O)c1ccco1 | 5.22%
85 | CCOc1c(Cl)cc(CNC(C)C(O)c2ccccc2)cc1OC.Cl (stereo not shown) | -11.8%
86 | Cc1cc(C)c(C)c(OCCCN(C)C)c1.O=C(O)C(=O)O | -20.3%
87 | COc1cc2c(-c3ccc4cc[nH]c4c3)c(-c3ccsc3)oc(=O)c2cc1OC | 10.2%
88 | CCNC(=S)N1CCN(CCN=CC2=C(O)CC(C)(C)CC2=O)CC1 | -9.75%
